Screen size: about 340,000 compounds; about 12,000 (3.5%) were called active. This list was built around the results that the source calls inconclusive (neither active nor inactive); the mix of calls is not that of the screen. Calls follow the shape of the dose curve; as a rule, active = well fitted inhibition curve with a large enough effect; inconclusive = small, poorly fitted or top-dose-only effect, or another doubt; inactive = no such curve, though single readings can be large or run the other way. No potency is given beside an inconclusive call; the fits are too rough.
assay: qHTS Assay for Inhibitors of Hepatitis C Virus (HCV); conditions: Huh7.5.1 HCVcc-Cre (HCVcc is cell-culture hepatitis C virus) infection, luciferase reporter, 44 h; series mostly up to 41.8 µM
Procedure, shortened: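 A cell-based infection assay in which seeded cells (1,000 per well) receive test compound after 4 h, are inoculated with HCVcc-Cre at approximately 0.5 moi, and are incubated 44 h before luminescence detection.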
Potency is read from the fitted curve at half-maximal effect; tags tell the direction and shape of the fitted curve.

| Compound | Potency |
| --- | --- |
| CCn1c(SC)nc2cc(S(=O)(=O)N3CCCCC3)ccc21 | inconclusive [inhibitor, single point] |
| O=C(COC(=O)c1c2c(nc3ccccc13)CCCC2)Nc1ccc2c(c1)OCO2 | active: 5.62 µM |
| COc1ccc(-c2cc(C(=O)N3CCN(c4ccccn4)CC3)c3ccccc3n2)cc1 | inconclusive [inhibitor, partial curve] |
| CC(=O)Nc1cccc(OCCCNS(=O)(=O)c2ccc(C#N)cc2)c1 | inactive |
| C=CCN(c1ccccc1OC)S(=O)(=O)c1ccc(Cl)c(C(=O)Nc2ccc(N3CCOCC3)cc2)c1 | inconclusive [inhibitor, partial curve] |
| Cn1cnc2nc(Cl)nc(Cl)c21 | active: 31.6 µM |
| O=C(CN1CCOCC1)N/N=C/c1ccco1 | inactive |
| CCOC(=O)c1c(C)[nH]c(C(=O)COC(=O)[C@H](C)N2C(=O)C3CCCCC3C2=O)c1C (stereo partly specified) | inconclusive [inhibitor, partial curve] |
| O=C(Nc1cc(C(=O)N2CCN(c3ccccc3O)CC2)ccc1Cl)c1cccs1 | inconclusive [inhibitor, single point] |
| Cc1ccc(S(=O)(=O)CCSc2nc(C)cc(C(F)(F)F)c2C#N)cc1 | inconclusive [inhibitor, full curve] |
| COc1ccccc1CNC(=O)CN1C(=O)NC2(CCCC2)C1=O | inactive |
| CCC(=O)c1ccc(OCC(=O)Nc2ccccc2N2CCCCC2)cc1 | inconclusive [inhibitor, single point] |
| O=C(N[C@@H](Cc1ccccc1)C(=O)CCl)OCc1ccccc1 | inconclusive [inhibitor, partial curve] |
| O=C(CN1CCc2cc3c(cc2C1)OCCCO3)Nc1ccccc1 | active: 11.2 µM |
| Cc1ccc(-c2cc(-c3ccc(F)cc3)nc(N)c2C#N)o1 | inconclusive [inhibitor, partial curve] |
| O=C(Nc1ccccc1)c1cc([N+](=O)[O-])ccc1NC1CCCCC1 | inconclusive [inhibitor, single point] |
| Cc1ccc(S(=O)(=O)N2CCN(C(=O)COC(=O)CCOc3ccc(C(C)(C)C)cc3)CC2)cc1 | inconclusive [inhibitor, single point] |
| Oc1ccc(-c2onc3ccc(Cl)cc23)cc1 | inconclusive [inhibitor, single point] |
| Cc1nnnn1/C(=C\c1ccccc1)C(=O)OCC(=O)Nc1ccc(Cl)cc1F | inconclusive [inhibitor, single point] |
| CCSc1nnc2c(n1)[nH]c1c(C)cccc12 | active: 31.6 µM |
| O=C1CSC(c2cccc([N+](=O)[O-])c2)N1C1CC2CCC1C2 (stereo unspecified) | inactive |
| O=c1c2cc(NC(=S)NCc3cccnc3)ccc2nc2n1CCCCC2 | inactive |
| O=C(c1cc(-c2ccccc2)nn1-c1ccccc1)N1CCN(S(=O)(=O)c2c(F)cccc2F)CC1 | active: 12.6 µM |

| Compound | Potency |
| --- | --- |
| CC(NC(=O)CCl)c1ccc(Cl)c(Cl)c1 (stereo unspecified) | inconclusive [inhibitor, single point] |
| Cc1cc(Nc2ccccc2)nc(NCc2ccccc2)n1 | inconclusive [inhibitor, single point] |
| C/C(=N\Nc1ccc([N+](=O)[O-])cc1[N+](=O)[O-])c1ccc(-n2nncc2C(C)(C)C)cc1 | inconclusive [inhibitor, single point] |
| O=C(c1ccccc1Cl)N1CCN(Cc2ccc3c(c2)OCO3)CC1 | inconclusive [inhibitor, single point] |
| O=C(NC1CCCc2c1cnn2-c1cc(F)cc(F)c1)c1ccccn1 (stereo unspecified) | inactive |
| CC(=O)Oc1ccc(C(=O)[C@H]2[C@H]3C(=O)N(c4ccc(C)cc4)C(=O)[C@H]3[C@@H]3C=CC=NN32)cc1 | inactive |
| CCN1C(=O)CCCc2ccccc21 | inactive |
| CCCc1nc2ccc(Br)cc2c(=O)n1-c1ccc([N+](=O)[O-])c(C(F)(F)F)c1 | inconclusive [inhibitor, single point] |
| CCCn1c(NC(=O)CCS(=O)(=O)c2ccc(C)cc2)nc2ccccc21 | inconclusive [inhibitor, single point] |
| O=C(COc1ccc([N+](=O)[O-])cc1Cl)N1CCOCC1 | inactive |
| CCOc1ccccc1NC(=O)C1CCC(=O)N1S(=O)(=O)c1ccc(C)cc1 (stereo unspecified) | inactive |
| O=C(c1cccc(S(=O)(=O)N2CCc3ccccc32)c1)N1CCN(c2ccccc2)CC1 | active: 10 µM |
| COc1ccc(/C=C2\N=C(c3ccccc3Cl)NC2=O)cc1 | inconclusive [inhibitor, partial curve] |
| Cc1ccc(C(=O)Nc2ccncc2)c(C)c1 | inconclusive [inhibitor, single point] |
| O=C(NC(=S)Nc1cccnc1)c1cccs1 | inactive |
| CCCCSc1cnn(-c2ccccc2)c(=O)c1SCCCC | inconclusive [inhibitor, partial curve] |
| COc1cccc(Cn2cnc3c(NS(=O)(=O)c4cc(Cl)ccc4Cl)c(C)c(C)cc32)c1 | inconclusive [inhibitor, partial curve] |
| COC(=O)c1c(-c2ccsc2)oc2ccc(-c3cc(OC)c(OC)c(OC)c3)cc12 | active: 12.6 µM |
| O=C(c1cc2nc(-c3ccccc3)cc(-c3ccccc3)n2n1)N1CCCC1 | inconclusive [inhibitor, full curve] |
| CC(C)c1ccc(NC(=O)CCNC(=O)N2CC(=O)Nc3ccccc32)cc1 | inactive |
| CC(C)CC(=O)Nc1cccc(-c2nc3ccccc3[nH]2)c1 | inconclusive [inhibitor, single point] |
| CC(=O)NC(=S)NNC(=O)COc1ccc(Br)cc1 | inconclusive [inhibitor, single point] |
| NC(=O)c1ncn([C@@H]2O[C@H](CNCc3cc(Br)ccc3OCc3ccccc3)[C@@H](O)[C@H]2O)n1 | inconclusive [inhibitor, single point] |
